Here are results for one molecule from US20030082175A1 (Biogen, published 2003).

The test addresses T1, FLAG-human APRIL (human, UniProt O75888 109-250).
T1 construct: Made from plasmid ps429 (p1448) in 293T cells; also called FLAG-hAPRIL; FLAG-h APRIL
T1 sequence: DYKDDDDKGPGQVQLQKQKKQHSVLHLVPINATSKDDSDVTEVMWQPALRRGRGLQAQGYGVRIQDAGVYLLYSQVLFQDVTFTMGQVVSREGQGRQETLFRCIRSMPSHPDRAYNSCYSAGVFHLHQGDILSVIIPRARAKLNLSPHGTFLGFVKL
Description: ELISA and immunoprecipitation (Example 2). The procedure:
ELISA analysis: Coated plates with receptor-Fc fusion proteins (hBCMA-Fc-739 or hTNFR2-Fc-492) at 1 ug/ml in carbonate pH 9.6, overnight, 4C. Blocked for 2 hours at room temperature using PBS/5% non fat dry milk/05% Tween-20. […] After incubation with ligands the plate was washed in PBS) 0.5% Tween-20 and probed with 0.5 ug/ml anti-FLAG mAb M2 in dilution buffer. The antibody was then detected using anti-mouse-PO 1/2000 with enzymatic development (OPD).
Immunoprecipitation experiments: 293T cells were transfected with indicated expression plasmid (Rec-Fc or flag ligand) in 9 cm plate. Transfected cells were left for 5d in 8 ml Optimem media (Gibco-BRL). Immunoprecipitation were performed by mixing 200 ul of each receptor-conditioned media with 200 ul of each ligand-conditioned media+400 ul PBS+10 ul ProtG-Sepharose. These were rotated 1 h on a wheel, washed 4× with 1 ml PBS, then boiled in 50 ul sample buffer (+DTT). 20 ul of each immunoprecipitation was loaded per lane. Reveal blotting was done with 1 ug/ml anti-FLAG M2 mAb (Sigma, St Louis Mo.) and anti-mouse PO (1/2000). A reprobe blot with anti-human-PO was also checked: 100 ul conditioned media was precipitated with MeOH/CHC13/lysozyme. This mix was boiled in 50 ul sample buffer (+DTT) and 20 ul was loaded. A Reveal blot was performed with anti-FLAG mAb M2 (1 ug/ml) and anti-mouse-PO (1/2000).

B1: human BCMA-hIgG Fc fusion protein (human APRIL-R-hIgGFc, pJST538) (Fc fusion)
chain: DVTMLQMAGQCSQNEYFDSLLHACIPCQLRCSSNTPPLTCQRYCNASVTNSVKGV[human IgG1 Fc omitted]
notes: also called hBCMA-Fc; hBMCA-Fc
For B1, the binding result was “binds”.
